# Measurements from the supplement of paper PMC8728848.
# The list shows a part of the results.
# B1: Pwp5 ND (Candida glabrata) (protein)
# chain: MGSSHHHHHHSSGLVPRGSHMASANPVPLTNVCYFPEEYPRQAGFRAITAGLASTILQGSVDELLNYSGLSSLTTQQTTTTTPNFQLPTLPLPTNVYGLTVVPLYLLVQLQGYFVPPVSGQYTFSLENTNDAAIIFFGNPSAFPCGDLSAWPQASADDITVTDGTFPSRTLFLKAGVAYPMRISYYNSLGSGNLAVSFTDPGGTKRTNWNGYIWRYNSCSTCTYT
# How the values were obtained:
# Experiment in all cases: glycan array binding signal (z-score within array); higher = stronger binding
# Settings in all cases: glycan notation: IUPAC condensed, linker removed
# [1] = molecular target: Fuc(a1-2)[GalNAc(a1-3)]Gal(b1-3)GlcNAc(b1-6)GalNAc
# Method in brief: (§1)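 Negative Z-scores can be read as non-binding. The Z-score is calculated within each array and then averaged across arrays of one protein sequence at different concentrations or buffers and across linkers. Arrays, 3228 in all, were curated from the Consortium for Functional Glycomics database and kept only where the protein sequence was available.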
# [2] = molecular target: Fuc(a1-2)[GalNAc(a1-3)]Gal(b1-4)Glc
# Method in brief: as §1
# [3] = molecular target: Fuc(a1-2)[GalNAc(a1-3)]Gal(b1-4)GlcNAc
# Method in brief: as §1
# [4] = molecular target: Fuc(a1-2)[GalNAc(a1-3)]Gal(b1-4)GlcNAc(b1-2)Man
# Method in brief: as §1
# [5] = molecular target: Fuc(a1-2)[GalNAc(a1-3)]Gal(b1-4)GlcNAc(b1-2)Man(a1-3)[Fuc(a1-2)[GalNAc(a1-3)]Gal(b1-4)GlcNAc(b1-2)Man(a1-6)]Man(b1-4)GlcNAc(b1-4)GlcNAc
# Method in brief: as §1
# [6] = molecular target: Fuc(a1-2)[GalNAc(a1-3)]Gal(b1-4)GlcNAc(b1-2)Man(a1-3)[Fuc(a1-2)[GalNAc(a1-3)]Gal(b1-4)GlcNAc(b1-2)Man(a1-6)]Man(b1-4)GlcNAc(b1-4)[Fuc(a1-6)]GlcNAc
# Method in brief: as §1
# [7] = molecular target: Fuc(a1-2)[GalNAc(a1-3)]Gal(b1-4)GlcNAc(b1-3)Gal(b1-4)GlcNAc
# Method in brief: as §1
# [8] = molecular target: Fuc(a1-2)[GalNAc(a1-3)]Gal(b1-4)GlcNAc(b1-3)Gal(b1-4)GlcNAc(b1-3)Gal(b1-4)GlcNAc
# Method in brief: as §1
# [9] = molecular target: Fuc(a1-2)[GalNAc(a1-3)]Gal(b1-4)GlcNAc(b1-3)GalNAc
# Method in brief: as §1
# [10] = molecular target: Fuc(a1-2)[GalNAc(a1-3)]Gal(b1-4)GlcNAc(b1-3)[Fuc(a1-2)[GalNAc(a1-3)]Gal(b1-4)GlcNAc(b1-6)]GalNAc
# Method in brief: as §1
# [11] = molecular target: Fuc(a1-2)[GalNAc(a1-3)]Gal(b1-4)GlcNAc(b1-6)GalNAc
# Method in brief: as §1
# [12] = molecular target: Fuc(a1-2)[GalNAc(a1-3)]Gal(b1-4)[Fuc(a1-3)]GlcNAc
# Method in brief: as §1
# [13] = molecular target: Fuc(a1-2)[GalNAc(a1-3)]Gal(b1-4)[Fuc(a1-3)]GlcNAc(b1-3)GalNAc
# Method in brief: as §1
# [14] = molecular target: Fuc(a1-2)[GalNAc(a1-4)]Gal(b1-4)GlcNAc
# Method in brief: as §1
# [15] = molecular target: Fuc(a1-2)[GalNAc(b1-3)]Gal
# Method in brief: as §1
# Fuc(a1-3)GlcNAc = molecular target: Fuc(a1-3)GlcNAc
# Method in brief: as §1
# [16] = molecular target: Fuc(a1-3)[Gal(b1-4)]Glc6S
# Method in brief: as §1
# [17] = molecular target: Fuc(a1-3)[Gal(b1-4)]GlcNAc
# Method in brief: as §1
# [18] = molecular target: Fuc(a1-3)[Gal(b1-4)]GlcNAc(b1-2)Man
# Method in brief: as §1
# [19] = molecular target: Fuc(a1-3)[Gal(b1-4)]GlcNAc(b1-2)Man(a1-3)[Fuc(a1-3)[Gal(b1-4)]GlcNAc(b1-2)Man(a1-6)]Man(b1-4)GlcNAc(b1-4)GlcNAc
# Method in brief: as §1
# [20] = molecular target: Fuc(a1-3)[Gal(b1-4)]GlcNAc(b1-2)Man(a1-3)[Fuc(a1-3)[Gal(b1-4)]GlcNAc(b1-2)Man(a1-6)]Man(b1-4)GlcNAc(b1-4)[Fuc(a1-6)]GlcNAc
# Method in brief: as §1
# [21] = molecular target: Fuc(a1-3)[Gal(b1-4)]GlcNAc(b1-3)Gal(b1-3)[Fuc(a1-4)]GlcNAc
# Method in brief: as §1
# [22] = molecular target: Fuc(a1-3)[Gal(b1-4)]GlcNAc(b1-3)Gal(b1-4)[Fuc(a1-3)]GlcNAc
# Method in brief: as §1
# [23] = molecular target: Fuc(a1-3)[Gal(b1-4)]GlcNAc(b1-3)Gal(b1-4)[Fuc(a1-3)]GlcNAc(b1-3)Gal(b1-4)[Fuc(a1-3)]GlcNAc
# Method in brief: as §1
# [24] = molecular target: Fuc(a1-3)[Gal(b1-4)]GlcNAc(b1-3)GalNAc
# Method in brief: as §1
# [25] = molecular target: Fuc(a1-3)[Gal(b1-4)]GlcNAc(b1-6)GalNAc
# Method in brief: as §1
# [26] = molecular target: Fuc(a1-3)[Gal(b1-4)]GlcNAc(b1-6)[Gal(b1-3)GlcNAc(b1-3)]Gal(b1-4)Glc
# Method in brief: as §1
# [27] = molecular target: Fuc(a1-3)[Gal(b1-4)]GlcNAc6S
# Method in brief: as §1
# [28] = molecular target: Fuc(a1-3)[Gal3S(b1-4)]Glc
# Method in brief: as §1
# [29] = molecular target: Fuc(a1-3)[Gal3S(b1-4)]GlcNAc
# Method in brief: as §1
# [30] = molecular target: Fuc(a1-3)[Gal3S(b1-4)]GlcNAc6S
# Method in brief: as §1
# [31] = molecular target: Fuc(a1-3)[GalNAc(b1-4)]GlcNAc
# Method in brief: as §1
# [32] = molecular target: Fuc(a1-3)[GalNAc(b1-4)]GlcNAc6S
# Method in brief: as §1
# Fuc(a1-4)GlcNAc = molecular target: Fuc(a1-4)GlcNAc
# Method in brief: as §1
# Fuc(b1-3)GlcNAc = molecular target: Fuc(b1-3)GlcNAc
# Method in brief: as §1
# Gal(a1-2)Gal = molecular target: Gal(a1-2)Gal
# Method in brief: as §1
# Gal(a1-3)Gal = molecular target: Gal(a1-3)Gal
# Method in brief: as §1
binder,measurement,setting,value
B1,glycan array binding signal (z-score),[1],-0.27
same,glycan array binding signal (z-score),[2],0.002
same,glycan array binding signal (z-score),[3],-0.391
same,glycan array binding signal (z-score),[4],-0.569
same,glycan array binding signal (z-score),[5],0.049
same,glycan array binding signal (z-score),[6],-0.369
same,glycan array binding signal (z-score),[7],-0.244
same,glycan array binding signal (z-score),[8],-0.616
same,glycan array binding signal (z-score),[9],0.252
same,glycan array binding signal (z-score),[10],-0.328
same,glycan array binding signal (z-score),[11],-0.11
same,glycan array binding signal (z-score),[12],-0.827
same,glycan array binding signal (z-score),[13],-0.156
same,glycan array binding signal (z-score),[14],-0.172
same,glycan array binding signal (z-score),[15],-0.624
same,glycan array binding signal (z-score),Fuc(a1-3)GlcNAc,-0.909
same,glycan array binding signal (z-score),[16],3.45
same,glycan array binding signal (z-score),[17],-0.558
same,glycan array binding signal (z-score),[18],-0.595
same,glycan array binding signal (z-score),[19],1.55
same,glycan array binding signal (z-score),[20],-0.244
same,glycan array binding signal (z-score),[21],0.067
same,glycan array binding signal (z-score),[22],-0.543
same,glycan array binding signal (z-score),[23],-0.258
same,glycan array binding signal (z-score),[24],-0.539
same,glycan array binding signal (z-score),[25],1.73
same,glycan array binding signal (z-score),[26],-0.271
same,glycan array binding signal (z-score),[27],-0.521
same,glycan array binding signal (z-score),[28],-0.316
same,glycan array binding signal (z-score),[29],-0.608
same,glycan array binding signal (z-score),[30],0.214
same,glycan array binding signal (z-score),[31],-0.351
same,glycan array binding signal (z-score),[32],-0.641
same,glycan array binding signal (z-score),Fuc(a1-4)GlcNAc,-0.606
same,glycan array binding signal (z-score),Fuc(b1-3)GlcNAc,2.63
same,glycan array binding signal (z-score),Gal(a1-2)Gal,-0.54
same,glycan array binding signal (z-score),Gal(a1-3)Gal,-0.029
